# From PMC4336329 (PLoS ONE, 2015)
# Among all 310,000 compounds or so, about 2,200 (0.71%) showed an effect of 50% or more. Effects have a minus sign here. The list shows a part of the results.
# Biological target: human ether-à-go-go-related gene (hERG) potassium channel (human, UniProt Q12809)
# Experiment: primary screen, population patch clamp on CHO cells stably expressing hERG
# Chain of human ether-à-go-go-related gene (hERG) potassium channel (Q12809 whole entry, looked up): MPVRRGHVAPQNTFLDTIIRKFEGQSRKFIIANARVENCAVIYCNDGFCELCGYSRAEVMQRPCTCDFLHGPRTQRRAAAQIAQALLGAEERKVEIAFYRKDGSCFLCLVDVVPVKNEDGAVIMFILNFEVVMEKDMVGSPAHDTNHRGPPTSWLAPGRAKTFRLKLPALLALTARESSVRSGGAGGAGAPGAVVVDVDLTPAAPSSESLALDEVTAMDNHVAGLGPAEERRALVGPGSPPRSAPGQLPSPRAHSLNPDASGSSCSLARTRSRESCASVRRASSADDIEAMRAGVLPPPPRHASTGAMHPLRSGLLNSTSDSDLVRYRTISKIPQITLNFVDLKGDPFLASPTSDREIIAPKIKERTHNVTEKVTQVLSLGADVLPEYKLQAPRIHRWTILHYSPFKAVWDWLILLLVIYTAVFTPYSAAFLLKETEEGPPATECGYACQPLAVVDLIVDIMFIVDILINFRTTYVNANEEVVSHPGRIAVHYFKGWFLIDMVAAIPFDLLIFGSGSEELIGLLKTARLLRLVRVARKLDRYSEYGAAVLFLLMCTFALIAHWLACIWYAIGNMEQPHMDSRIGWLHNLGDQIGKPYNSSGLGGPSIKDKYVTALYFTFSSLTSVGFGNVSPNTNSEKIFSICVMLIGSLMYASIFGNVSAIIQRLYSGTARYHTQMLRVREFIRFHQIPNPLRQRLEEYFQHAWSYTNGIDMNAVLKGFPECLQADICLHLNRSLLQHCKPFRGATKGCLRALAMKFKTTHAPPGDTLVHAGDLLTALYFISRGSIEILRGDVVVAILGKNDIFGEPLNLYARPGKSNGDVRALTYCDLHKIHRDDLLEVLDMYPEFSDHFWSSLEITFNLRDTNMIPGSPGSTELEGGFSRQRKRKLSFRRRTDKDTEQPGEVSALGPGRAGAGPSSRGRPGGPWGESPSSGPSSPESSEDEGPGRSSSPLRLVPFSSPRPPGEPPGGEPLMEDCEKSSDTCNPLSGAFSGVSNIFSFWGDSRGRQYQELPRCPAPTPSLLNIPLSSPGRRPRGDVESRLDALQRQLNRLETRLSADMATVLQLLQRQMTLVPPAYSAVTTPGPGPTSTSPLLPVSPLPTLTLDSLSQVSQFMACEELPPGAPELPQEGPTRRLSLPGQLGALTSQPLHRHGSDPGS
row,Compound,"hERG current change (%, negative = inhibition) at 1uM"
1,COCCNc1oc(-c2ccc(C)cc2)nc1C#N,12.3%
2,CN(C)c1cccc(C(=O)n2cc(C(=O)c3cc(F)ccc3O)cn2)c1,14.2%
3,CCOC(=O)c1cnc(-n2nc(C)cc2C)nc1N(CC)CC,-17.6%
4,COc1ccc(CCN(C)CCC(=O)Nc2cc(C)ccc2C)cc1OC,-21.1%
5,CCN1C(=O)C(CC(=O)Nc2ccc(OC)cc2)N(Cc2ccc(OC)c(OC)c2)C1=S (stereo not drawn),10.8%
6,Cc1ccc2c(c1)C1CN(C)CCC1N2C(=S)Nc1ccc(OC(F)F)cc1 (stereo not drawn),-9.68%
7,COc1ccc([C@@H]2[C@@H]3C(=O)N(C(C)(C)C)C(=O)[C@@H]3[C@]3(Cc4ccccc4)C(=O)N(c4ccccc4)C(=O)N23)cc1,0.0887%
8,CCOC(=O)c1cccc2c(=O)c(C(=O)c3ccc(Cl)cc3)c(C(=O)OC)[nH]c12,11.9%
9,COc1ccc(CN(CC(=O)NCC2CCCO2)C(=O)CNS(=O)(=O)c2ccc(C)cc2)cc1 (stereo not drawn),7.64%
10,COc1ccc(/C=C/c2c([N+](=O)[O-])c(=O)n(C)c(=O)n2C)c(OC)c1,2.15%
11,N#Cc1ccc(Cl)cc1NC(=O)COC(=O)[C@H](CCC(N)=O)NC(=O)c1ccc(F)cc1,7.69%
12,Cc1ccc(C(=O)c2c[nH]c3c(F)cc(F)cc3c2=O)cc1,2.64%
13,Fc1ccc2nc3[nH]c4ccccc4c3nc2c1,7.53%
14,O=S(=O)(c1ccc(N2CCN(S(=O)(=O)c3ccccc3)CC2)nc1)N1CCCC1,12.9%
15,Cc1cccc(CS(=O)(=O)Cc2ccc(C(=O)NCc3cccs3)o2)c1,-11.6%
16,COc1ccc(C2CC(=O)C3=C(C2)Nc2ccccc2N(C(=O)CCC(=O)O)C3c2ccc(F)cc2)cc1 (stereo not drawn),2.41%
17,Cc1ccc(Cn2nnc(C(=O)Nc3cccc(C)c3C)c2N)cc1,4.7%
18,Cc1ccnc(NC(=O)CN(C)S(=O)(=O)c2cccc3nsnc23)c1,10.2%
19,CCOC(=O)COn1c(=O)c(-c2ccccc2)[n+]([O-])c2ccccc21,4.04%
20,Cc1ccccc1OCC(=O)OC1CCN(C)CC1.Cl,4.9%
21,Cc1cccnc1NC(=O)Nc1ccccc1,12.1%
22,Cc1ccc(S(=O)(=O)C2(S(=O)(=O)c3ccc(C)cc3)CCCC2)cc1,-10.6%
23,Cc1nc(N)nc(COc2ccccc2)n1,11.1%
24,COC(=O)c1c(NC(=O)c2ccccc2)sc2c1CC(C)(C)NC2(C)C,6.12%
25,O=C1N/C(=C/c2ccc(Br)s2)C(=O)N1c1ccccc1,18.9%
26,CN(CCc1ccccn1)S(=O)(=O)c1ccc(F)cc1,7.67%
27,CC(=O)c1ccc(S(=O)(=O)NCCC(=O)OC(C)C(=O)Nc2ccc(F)cc2)cc1 (stereo not drawn),8.18%

row,Compound,"hERG current change (%, negative = inhibition) at 1uM"
1,Cc1cc(C(=O)COC(=O)c2ccc[nH]c2=O)c(C)n1-c1ccccc1F,1.72%
2,COc1ccc([N+](=O)[O-])cc1NC(=O)COC(=O)/C=C/c1ccco1,6.21%
3,O=C(c1n[nH]c2c1CCC2)N1CCCC(Nc2cccc(F)c2)C1 (stereo not drawn),-3.65%
4,COC(=O)C(Cc1ccccc1)NC(=O)COc1ccc(C(C)(C)C)cc1 (stereo not drawn),3.8%
5,Cc1ccc(C(=O)NNC(=O)c2cc3ccccc3cc2O)cc1,11.4%
6,CCOc1nc(C)ccc1-c1noc(-c2ccccc2OC)n1,15.9%
7,CCOc1ccc(NC(=O)C2CCCN(S(=O)(=O)c3ccc4c(c3)CC(C)N4C(C)=O)C2)cc1 (stereo not drawn),17.8%
8,Cc1cc(OCC(=O)N[C@@H](Cc2ccccc2)C(=O)O)c2c3c(c(=O)oc2c1)CCC3,2.6%
9,O=C(NCC1CCCN1S(=O)(=O)c1cccs1)c1cccc(Cl)c1 (stereo not drawn),11.3%
10,COc1cccc(C(=O)NCC(c2ccc3c(c2)OCO3)N2CCN(c3ccc(F)cc3)CC2)c1 (stereo not drawn),4.47%
11,CC(=O)Nc1nc2cc3c(cc2s1)OCO3,10.7%
12,COc1ccc(-c2nc(CS(=O)CC(=O)NCc3ccco3)c(C)o2)cc1 (stereo not drawn),-1.89%
13,CC1CCCN(c2ccc(N)cc2C(N)=O)C1 (stereo not drawn),-1.18%
14,C=C(C)Cn1c(N2CCCC2)nc2c1c(=O)[nH]c(=O)n2C,11%
15,COc1ccc(-c2cc(-c3ccc(OC)cc3)[nH]n2)cc1,9.42%
16,CCOC(=O)c1c(NC(=O)COc2ccccc2F)sc2c1CC(C)(C)NC2(C)C,8.47%
17,COc1ccc(S(=O)(=O)N2CCC(C(N)=O)CC2)c2ccccc12,8.9%
18,CCC(C)(C)N(C(=O)CCC(=O)Nc1cc(C)on1)C(C(=O)NC(C)(C)C)c1ccc(OC)cc1 (stereo not drawn),17%
19,CC(C)c1cccc(C(C)C)c1OC(=O)NC(=O)c1c(F)cccc1F,14.3%
20,Clc1ccc(/C=N/N2CCN(Cc3ccccc3Cl)CC2)cc1,15.7%
21,CC(C)NC(=O)CN1CCN(C(=O)c2ccc3oc(CCCc4ccccc4)nc3c2)CC1,-5.99%
22,O=C(Cc1ccc(Cl)cc1)N/N=C1\CCCc2ccccc21,4.73%
23,O=C(Nc1cccc(F)c1)c1c(F)c(F)c(F)c(F)c1F,-0.347%
24,O=C1CC(c2ccc(Br)cc2)NC(c2ccc(Br)cc2)C1c1ccccc1 (stereo not drawn),-0.295%
25,Cc1cc(C)c(S(=O)(=O)c2ccccc2Cl)c(Cl)n1,6.98%
26,CC1(c2ccc(Cl)cc2)NC(=O)N(CC(=O)N2CCN(S(=O)(=O)c3ccccc3)CC2)C1=O (stereo not drawn),-12%
27,O=C(CCCc1ccccc1)N1CCN(C2CCCCC2)CC1,-23.6%
